Test results as given in PubChem BioAssay AID1508642 (National Center for Advancing Translational Sciences (NCATS), 2021).
The whole screen tested about 43,000 compounds, of which about 200 (0.47%) were called active. About 12% were inconclusive and are not listed. Calls follow the shape of the dose curve; as a rule, active = well fitted cell-killing curve with a large enough effect; inconclusive = small, poorly fitted or top-dose-only effect, or effect the other way; inactive = flat fitted curve, though single readings scatter. This is one part of the list.

Experiment: Cell viability qHTS assay in S16 Pmp22-F2sN cells; also: nearly all actives have a fitted effect of over 65% in size
Conditions: S16 Pmp22-F2sN Schwann cells (luciferase reporters placed in the Pmp22 gene) viability, CellTiter-Glo, 24 h; series mostly up to 57.5 µM; activity change, negative = cytotoxicity: at the top concentration
How it was run: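 Rat S16 Schwann reporter line, 24 h treatment with library compounds delivered at 23 nL per well. Cell viability by CellTiter-Glo luminescence.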
% is scaled to controls: 0 for no effect and ±100 for the full control effect; potency is read from the fitted curve at half-maximal effect.

| SMILES | activity change, negative = cytotoxicity | Potency |
| --- | --- | --- |
| CCOc1ccc(-c2cc(C(=O)NCCc3ccc(C)cc3)c3ccccc3n2)cc1 | inactive: 20.2% | – |
| Cc1cccc(-n2c3nc(=O)[nH]c(=O)c-3cc3ccc(Cl)cc32)c1C | inactive: -3.38% | – |
| O=C(CSc1nc2c([nH]c3ccccc32)c(=O)n1-c1ccccc1)N1CCCCC1 | inactive: 3.85% | – |
| CC(C)CCNC(=O)c1cc(-c2cccnc2)nc2ccc(S(=O)(=O)N3CCC(C)CC3)cc12 | inactive: 1.41% | – |
| COc1ccc(NC(=O)c2nnn(-c3ccc(C(C)C)cc3)c2C)c(OC)c1 | inactive: 3.17% | – |
| COc1ccc(OC)c(-c2noc(N3CCN(c4cccc(C(F)(F)F)c4)CC3)n2)c1 | inactive: 11.6% | – |
| COc1cc(OC)c(NC(=O)c2ccc(-n3cnc4cccnc43)cc2)cc1Cl | inactive: 15.4% | – |
| CCOC(=O)CC(NC(=O)Cn1nnc(-c2ccc(Cl)cc2)n1)c1ccc(OC)cc1 (stereo not drawn) | inactive: 18.9% | – |
| Cn1c(CN2CCOCC2)nc2cc(NC(=O)c3ccccc3[N+](=O)[O-])ccc21 | inactive: 0.437% | – |
| CCOc1cccc2sc(N3CCN(C(=O)c4ccco4)CC3)nc12 | inactive: -0.24% | – |
| CC1=C(c2ccc(C(C)C)cc2)S(=O)(=O)N=C1N1CCC(C(=O)NCc2ccc(C)o2)CC1 | inactive: -4.23% | – |
| O=C(NC1CCCCC1)c1ccc(CSc2nc3cccnc3n2Cc2ccccc2)cc1 | inactive: -25.3% | – |
| Cc1nc2c(-c3ccc(F)cc3)c(C)nn2c(C)c1CCC(=O)NCc1ccc(F)cc1 | inactive: 4.22% | – |
| CCOC(=O)c1c(C)[nH]c(CCC(=O)NCc2ccc(OC)cc2OC)c1C | inactive: 7.47% | – |
| Cc1c(CC(=O)NCCc2ccccc2)c(=O)oc2c(C)c3occ(C(C)(C)C)c3cc12 | inactive: -9.88% | – |
| CC(=O)c1cccc(NC(=O)Cn2ccn3nc(-c4ccccc4)cc3c2=O)c1 | inactive: 0.165% | – |
| Cc1cc(Nc2cc(Cl)ccc2C)n2nc(-c3ccccc3)nc2n1 | inactive: 10.1% | – |
| CCOC(=O)c1c(N)n(-c2ccc(OCC)cc2)c2nc3ccccc3nc12 | inactive: 25.1% | – |
| Cc1ccc(CN(Cc2cccn2-c2nnc(N3CCCC3=O)s2)C(=O)Nc2ccccc2Cl)cc1 | inactive: -7.26% | – |
| O=C(COc1ccccc1-c1nc(-c2ccccc2)no1)Nc1ccc([N+](=O)[O-])cc1 | inactive: 9.53% | – |
| CC1=C(C(=O)Nc2ccccc2Br)C2(CCC(C)CC2)OC1=O (stereo not drawn) | inactive: 7.1% | – |
| CCCCC12CN3CC(C)(CN(C1)C3c1ccc(OCc3ccccc3)cc1)C2=O (stereo not drawn) | inactive: 5.42% | – |
| Cc1ccc(-c2nc3sc(CCNC(=O)c4ccc(F)c(F)c4)c(C)n3n2)cc1 | inactive: -12.3% | – |
| Cc1ccc(CNC(=O)CCCCCn2c(=O)c3sccc3n(CC(=O)N3CCCCC3C)c2=O)cc1 (stereo not drawn) | inactive: 0.505% | – |

| SMILES | activity change, negative = cytotoxicity | Potency |
| --- | --- | --- |
| O=C(CCCCCn1c(=O)[nH]c2ccccc2c1=O)N1CCN(c2cccc(C(F)(F)F)c2)CC1 | inactive: -22.4% | – |
| CCCn1cc(S(=O)(=O)c2ccc(C)c(C)c2)c(=O)c2cc(F)c(N3CCCCC3)cc21 | inactive: 3.25% | – |
| CC(C)NC(=O)c1ccc(CSc2nc3ccncc3n2Cc2cccc(F)c2)cc1 | inactive: 18.7% | – |
| FC(F)(F)c1cccc(Nc2nc3nonc3nc2Nc2ccc(Cl)cc2)c1 | – | active: 8.91 µM |
| COc1ccc(C)cc1NC(=O)CN(C)S(=O)(=O)c1ccc2c(c1)c(=O)n(C)c(=O)n2C | inactive: 4.81% | – |
| Cc1ccccc1NC(=O)c1c(C)oc2ccc(O)c(CN3CCCCCC3)c12 | inactive: -3.61% | – |
| Cc1nc(-c2ccc(S(=O)(=O)N3CCN(c4ccccc4F)CC3)cc2)co1 | inactive: -0.513% | – |
| Cc1ccccc1NC(=O)c1sc2nc(-c3cc4ccccc4oc3=O)[nH]c(=O)c2c1C | inactive: 4.13% | – |
| CCN(C(=O)Cn1c(C(=O)OC)cc2sccc21)c1cccc(C)c1 | inactive: -3.02% | – |
| COc1ccccc1N1CCN(C(=O)c2nn(C)c3c2CS(=O)(=O)c2ccccc2-3)CC1 | inactive: -0.745% | – |
| CC(C)c1ccc(C2CC(=O)N3CN(C4CCCCC4)CSC3=C2C#N)cc1 (stereo not drawn) | inactive: 0.287% | – |
| Cn1ccc2cc(S(=O)(=O)N3CCCC(C(=O)NCc4ccccc4F)C3)ccc21 (stereo not drawn) | inactive: -1.54% | – |
| Cc1ccccc1-c1nc(CNC(=O)NC2CCCCC2)c(C)o1 | inactive: 2.5% | – |
| CC1=C(C(=O)Nc2ccccc2)C(c2ccc(Br)cc2)n2nc(CCCO)nc2N1 (stereo not drawn) | inactive: 16.3% | – |
| COc1ccc(-n2ncc3c2ncn2nc(-c4ccc(OC)c(OC)c4)nc32)cc1 | inactive: -1.58% | – |
| Cn1cc(S(=O)(=O)N2CCCC2)cc1C(=O)Nc1ccc(F)cc1F | inactive: 17.8% | – |
| CCOC(=O)c1ccc(NC(=O)Cc2noc3ccc(C)cc23)cc1 | inactive: 1.27% | – |
| COc1cccc(CNC(=O)CN2C(=O)COc3ccc(S(=O)(=O)N4CCCCC4)cc32)c1 | inactive: 5.75% | – |
| CCN(CC)c1ccc(CN(C(=O)c2cc(=O)c3ccccc3o2)C2CCS(=O)(=O)C2)cc1 (stereo not drawn) | inactive: 5.03% | – |
| COc1ccc(-c2cc(OC(=O)c3cccc(Cl)c3)c3c(C)oc(C)c3c(=O)c2)cc1OC | inactive: -17.7% | – |
| COc1ccc(CN(Cc2ccco2)C(=O)COc2ccccc2Cl)cc1 | inactive: -0.0524% | – |
| Cc1cc(C)c(S(=O)(=O)NCC2CCC(C(=O)NCCc3ccccc3)CC2)c(C)c1 (stereo not drawn) | inactive: -2.15% | – |
| COC(=O)c1ccccc1NC(=O)c1ccc2c(c1)CCN2S(=O)(=O)c1ccc(Cl)cc1 | inactive: -3.13% | – |
| Cc1ccc(C)c(Cn2c3ccccc3c3cnn(CC(=O)NC4CCCCCC4)c(=O)c32)c1 | inactive: 16.6% | – |
